Among all 5,400 compounds or so, about 190 (3.5%) showed an effect of 50% or more. The list shows a part of the results.

This assay has as its system Vero-E6. Kind of assay: primary screen, phospholipidosis by LipidTOX staining; higher = more effect of the substance. As to conditions: 10 µM. The procedure, abridged:
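Drug-induced phospholipidosis detected with HCS LipidTOX Red reagent in Vero-E6 cells. Compounds tested at 10 μM, with amiodarone (10 μM) as positive control and DMSO (0.1 v/v %) as vehicle.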
`O=C(O[C@@H]1Cc2c(O)cc(O)cc2O[C@@H]1c1ccc(O)c(O)c1)c1cc(O)c(O)c(O)c1`: the result_ITMP is on record as -2.21%.

`C[C@@H]1C[C@H]2[C@@H]3C[C@H](F)C4=CC(=O)C=C[C@]4(C)[C@@]3(Cl)[C@@H](O)C[C@]2(C)[C@H]1C(=O)COC(=O)C(C)(C)C`: the result_ITMP was -2.11%.

With `COC(=O)N[C@H](C(=O)N1CCC[C@H]1c1ncc(-c2ccc3c(c2)O[C@@H](c2ccccc2)n2c-3cc3cc(-c4cnc([C@@H]5CCCN5C(=O)[C@@H](NC(=O)OC)C(C)C)[nH]4)ccc32)[nH]1)C(C)C`, the result_ITMP was found to be 3.24%.

In the case of `COc1c(C)c2c(c(O)c1C/C=C(\C)CCC(=O)O)C(=O)OC2`, the result_ITMP was -0.26%.

In the case of `CSc1ccc([C@H]2CN3CCC[C@H]3c3ccccc32)cc1` (racemic), the result_ITMP was found to be 14.1%.

For `O=C(O)c1ccc(S(=O)(=O)N(Cl)Cl)cc1`, the result_ITMP was -3.49%.

As for `O=[N+]([O-])c1cn2c(n1)OC[C@@H](OCc1ccc(-c3ccc(OC(F)(F)F)cc3)nc1)C2`, the result_ITMP is -1.07%.

As to `O=C(Oc1ccccc1C(=O)O)c1ccccc1O`, the result_ITMP is listed as -2.04%.

`CCCCCNC(=N)N/N=C/c1c[nH]c2ccc(OC)cc12`: the result_ITMP worked out at 3.52%.

Take `CS(=O)(=O)c1ccc(-c2cnc(N)c(C(=O)Nc3ccccc3)n2)cc1`: the result_ITMP is -11.9%.

For the compound `NS(=O)(=O)c1cc(Cl)c(Cl)c(S(N)(=O)=O)c1`, the result_ITMP is on record as -0.52%.

Consider `O=C(O)C1=CO[C@@H](O[C@@H]2O[C@H](CO)[C@@H](O)[C@H](O)[C@H]2O)[C@@H]2C(CO)=CC[C@H]12`, for which the result_ITMP was -3.87%.

As to `C[N+]1([O-])C2CCC1CC(OC(=O)C(CO)c1ccccc1)C2` (stereo not shown), the result_ITMP was determined as 0.6%.

For `CCN1CCCC(OC(=O)C(c2ccccc2)c2ccccc2)C1` (stereo not shown), the result_ITMP turned out to be 6.22%.

For `Cc1ccc(Nc2ncc3c(n2)N(C)C(=O)N(c2cc(NC(=O)c4cccc(C(F)(F)F)c4)ccc2C)C3)cn1`, the result_ITMP is on record as -0.23%.

For `CN(C)CCCSC(=N)N`, the result_ITMP amounted to 3.38%.

As to `O=C(CNC(=O)c1cccc(C(F)(F)F)c1)N[C@@H]1CCN(Cc2ccc(Cl)cc2)C1`, the result_ITMP was determined as 12.4%.

As for `CCCC(CCC)C(=O)NCc1ccc2c(cnn2-c2ccccc2OC)c1`, the result_ITMP came out at 0.82%.

Consider `NS(=O)(=O)OC[C@@H]1C[C@@H](n2ccc3c(N[C@H]4CCc5ccccc54)ncnc32)C[C@@H]1O`, for which the result_ITMP is reported as -0.05%.

For the compound `CN(C)CCOc1ccc(-c2nc(-c3ccncc3)c(-c3ccc4c(c3)CC/C4=N\O)[nH]2)cc1`, the result_ITMP was -2.12%.

`NCCNCCNCCN`: the result_ITMP is listed as -4.13%.

As to `C=CCNC(=O)c1cc([N+](=O)[O-])cc2c(=O)[nH]c(Nc3ccc(Cl)c(Cl)c3)nc12`, the result_ITMP is listed as -1.98%.

For the compound `C[C@H](Cc1cc2c(c(C(N)=O)c1)N(CCCO)CC2)NCCOc1ccccc1OCC(F)(F)F`, the result_ITMP is on record as -1.36%.

Consider `CC(O)(P(=O)([O-])O)P(=O)([O-])O`, for which the result_ITMP is on record as -0.98%.

As for `Cc1cccc(NC(=O)N[C@@H]2N=C(c3ccccc3)c3ccccc3N(CC(=O)c3ccccc3C)C2=O)c1`, the result_ITMP is given as -5.95%.

In the case of `C/C(=C\C(=O)Nc1ccccc1C(=O)O)c1ccc2ccccc2c1`, the result_ITMP is given as -3.63%.

As to `O=C(c1ccc(/C=C/c2n[nH]c3ccccc23)cc1)N1CCNCC1`, the result_ITMP worked out at 29.6%.

Take `Cc1cc(Cl)ccc1OCCCC(=O)NO`: the result_ITMP is recorded as -3.77%.

Regarding `O=C(NCCN1CCOCC1)c1ccc(Cl)cc1`, the result_ITMP is recorded as -6.19%.

Regarding `O=C(c1ccc(CN2CCOCC2)cc1)N1CCN(C2CC2)CC1`, the result_ITMP is on record as -1.81%.

Consider `COc1cccc(OC)c1-c1cc(C(=O)N[C@@H](CC(C)C)C(=O)O)nn1-c1ccnc2cc(Cl)ccc12`, for which the result_ITMP was -4.8%.

As for `[2H]C([2H])([2H])C(=O)Nc1c(I)c(C(=O)O)c(I)c(C(=O)NC)c1I`, the result_ITMP was -3.9%.

As to `Cc1ccc(-n2sc(=O)n(Cc3ccc(F)cc3)c2=O)cc1`, the result_ITMP is -5.56%.

In the case of `O=[N+]([O-])c1cc(O)c(O)c([N+](=O)[O-])c1`, the result_ITMP was -2.09%.

For the compound `CN1C(=O)OC(C)(C)C1=O`, the result_ITMP stood at 2.55%.

As for `CC(=O)CCCCn1c(=O)c2c(ncn2C)n(C)c1=O`, the result_ITMP is -6.36%.

With `COc1cc2c(cc1OCCCN1CCCC1)N=C(N)C21CCC1`, the result_ITMP is reported as -2.04%.

Take `Oc1ccnc(S)n1`: the result_ITMP is listed as -2.88%.

As to `O=C(O)Cc1cccnc1C(=O)O`, the result_ITMP was -1.68%.

With `COc1ccc(C(=O)/C(Br)=C/C(=O)[O-])cc1`, the result_ITMP is 7.96%.

Regarding `C=CCNc1nc(NCC=C)nc(N2CCN(C(c3ccc(F)cc3)c3ccc(F)cc3)CC2)n1`, the result_ITMP stood at 1.15%.

For `OCCN1CCN(CCCN2c3ccccc3C=Cc3ccccc32)CC1`, the result_ITMP was 50.3%.

On to `CN[C@@H]1C[C@@H](c2ccc(Cl)c(Cl)c2)c2ccccc21`, for which the result_ITMP is on record as 71.1%.

On to `COc1cccc(Nc2c(C(N)=O)cnc3c(C)cc(S(=O)(=O)c4cccc(C(=O)N(C)C)c4)cc23)c1`, for which the result_ITMP was 2.11%.

Take `C[C@H]1O[C@@H](n2cc(F)c(=O)[nH]c2=O)[C@H](O)[C@@H]1O`: the result_ITMP was -4.17%.

As to `CC[C@H](C(=O)N1CCCC[C@H]1C(=O)O[C@H](CCc1ccc(OC)c(OC)c1)c1cccc(OCC(=O)NCCNC(=O)COc2cccc([C@@H](CCc3ccc(OC)c(OC)c3)OC(=O)[C@@H]3CCCCN3C(=O)[C@@H](CC)c3cc(OC)c(OC)c(OC)c3)c2)c1)c1cc(OC)c(OC)c(OC)c1`, the result_ITMP is -7.12%.

Take `CC(C)(C)c1nc(-c2cccc(NS(=O)(=O)c3c(F)cccc3F)c2F)c(-c2ccnc(N)n2)s1`: the result_ITMP was 3.38%.

As to `CC(C)=CCc1c(O)cc(O)c2c(=O)c(O)c(-c3ccc(C(F)(F)F)cc3)oc12`, the result_ITMP is -2.77%.

With `Cc1c(C(=O)Nc2ccc(N3CCC(N4CCOCC4)CC3)c(C#N)c2)cnn1-c1ccc(Cl)cc1`, the result_ITMP is recorded as 3.85%.

`N[C@@H](Cc1cc(CP(=O)(O)O)cc(-c2ccccc2Cl)c1)C(=O)O`: the result_ITMP is -0.92%.

On to `Nc1ccc(C(=O)[O-])cc1`, for which the result_ITMP is recorded as 5.13%.

With `O=C(O)CCCCC(CCSCc1ccccc1)SCc1ccccc1` (stereo not shown), the result_ITMP is on record as -6.39%.

For the compound `Cc1nn(-c2ccccc2)c(C)c1/C=N/N1CCN(Cc2ccccc2)CC1`, the result_ITMP is on record as -2.24%.

Consider `Nc1ncnc2c1ncn2[C@@H]1O[C@H](CO)[C@@H](O)[C@H]1O`, for which the result_ITMP is reported as -2.41%.

Consider `Clc1ccc(CSC(Cn2ccnc2)c2ccc(Cl)cc2Cl)cc1` (stereo not shown), for which the result_ITMP is -2.27%.

The record behind these values is PMC13083723 (Patterns, 2026).
